# Assay results: the supplement of paper PMC3334620
# Whole data set: some 33,000 sequences, median “E-score (-0.5 to 0.5)” near -0.016, cut for the highest 2% near 0.31. This is one part of the list.
# Target: Cst6 (UniProt P40535)
# Test: PBM E-score (8-mer binding enrichment) (E-score (-0.5 to 0.5)); higher = stronger / more preferred TF binding; most listed sequences are background and not binding sites
# Details: protein concentration: 200 nM; construct: GST-DNA-binding domain
# Summary of the method: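 PURExpress in vitro transcription/translation supplied GST-tagged yeast transcription factors, either full-length or DNA-binding domain. Applied at about 100-200 nM to universal all-10-mer Agilent arrays double-stranded by primer extension, the bound protein was detected with fluorescent anti-GST. E-scores, modified Wilcoxon-Mann-Whitney statistics, were given by the Universal PBM Analysis Suite to ungapped eight-base words pooled with their reverse complements after masliner normalisation.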
row,Sequence,PBM E-score
1,CGCCTTCC,-0.151
2,ATTCCAAC,0.0296
3,GCCCGGCC,-0.332
4,AAACATTC,0.0215
5,GGCGGATA,-0.0938
6,AGATTAGG,0.012
7,CGTGCGTA,0.133
8,GCCAACCA,-0.0975
9,AGCCGGAA,-0.141
10,CGAGCACA,-0.109
11,GAATGTAA,0.21
12,CGCGCTAA,0.146
13,AGCCTTTG,-0.276
14,AACGGAAT,0.096
15,ACAGCCGA,-0.242
16,CCTCTCCG,-0.304
17,AGTGACAA,0.169
18,AGTAGGCA,0.205
19,ACGACTCG,-0.133
20,TCACGACA,0.18
21,TTACGAAA,0.284
22,AACTATTG,0.161
23,AAGCCATT,0.058
24,AGTAACCC,-0.0846
25,CCCAAAGC,-0.115

row,Sequence,PBM E-score
1,ATAGCTTC,-0.00795
2,GATACTAC,0.0654
3,CTCGGGTC,-0.156
4,AGGAGGCC,-0.246
5,GAATATAA,0.111
6,CGGTAATA,0.196
7,AAGAAAGA,0.0706
8,CTAGAAAC,0.0398
9,GGTGCCGA,-0.0364
10,ACGGTCGG,-0.22
11,TGATCGCA,0.0445
12,ATCTGACA,-0.0704
13,AGCTCTCG,-0.109
14,CCATGTAG,-0.111
15,AATGCCCT,-0.00456
16,CAGGTAAC,-0.214
17,CGTATCTA,0.0238
18,ACAGAAAC,0.24
19,CCCTCAAC,-0.209
20,CGATATCG,0.109
21,AGATGAGG,-0.0655
22,AGGAGTGC,-0.274
23,GAAACCTC,-0.208
24,AAAGGGGT,-0.132
25,CCTACTTC,-0.0441

row,Sequence,PBM E-score
1,ATATACAC,0.144
2,AACAACGG,-0.00393
3,CCGCTCAA,-0.0403
4,GCCTCCGA,-0.162
5,ATCAGCGC,0.00885
6,AGACACTG,-0.103
7,CTGCATCA,0.225
8,AGGGGAAG,-0.156
9,CCTGTGTC,-0.136
10,CGTAGTAC,0.153
11,GATCGGGA,-0.301
12,CTAAATAG,0.00548
13,AGTCAATG,0.0179
14,CCAGTTCA,0.0369
15,GAGGATAC,-0.0323
16,CCTCAGTA,-0.27
17,AATCATTA,0.28
18,CAGGTGGC,-0.0716
19,ATAGTTGC,0.0857
20,ACTTGAAT,0.0974
21,ACCAGCCG,-0.157
22,CGTAGTCA,0.0217
23,TACAGAAA,0.161
24,CGACCTCC,-0.109
25,CGGTCAAA,0.106

row,Sequence,PBM E-score
1,GGAGGAAC,-0.222
2,ATAAGGCG,0.198
3,AGCTCAAA,0.103
4,CGACGTGA,0.0584
5,ATCTCAAG,-0.0306
6,AGGCTTGA,0.0376
7,CAAGACTC,0.0171
8,CCGGTCAA,-0.0667
9,CGGCACCC,0.0278
10,CATCGCGA,-0.0156
11,AAAAACAA,0.219
12,CGTCCTCA,-0.13
13,GGCTGAGA,-0.133
14,ATGCAGAG,-0.231
15,ATGGCGAA,0.117
16,GACAACTC,-0.00913
17,ACCCCCTC,-0.393
18,CCATGGTC,-0.281
19,GTCCATCA,0.0595
20,GTAAGGCA,0.184
21,AGGTCCCG,-0.171
22,CACGGCTG,0.0577
23,CCCCCGGC,-0.364
24,ATATGGAG,0.216
25,GATCCCGA,-0.236

row,Sequence,PBM E-score
1,CAGCCCCC,-0.432
2,CTGGGAGA,-0.226
3,AGCTGGGG,-0.3
4,GTACCGAA,-0.18
5,ACGAATTC,0.07
6,CGCACCAA,-0.0458
7,GGGATCGA,-0.0556
8,ACCGTACC,-0.246
9,TCCATGAA,0.127
10,CGAGCAAC,0.0833
11,GGTTACCA,-0.022
12,GCCCCCGC,-0.278
13,ACGGCCAT,-0.158
14,GACGCTGA,0.119
15,GCTTGACA,-0.0835
16,AACTGTGT,0.0284
17,AGCAAGCA,-0.252
18,ATTGTTAA,0.0366
19,CACCGCTA,-0.187
20,CTGTTAAG,0.0326
21,GTCGATTA,0.159
22,TCACGTAA,0.415
23,CGGCCAAA,0.0839
24,CGTCACTA,0.459
25,CCAATCAG,-0.248

row,Sequence,PBM E-score
1,AGCGGCAG,-0.0498
2,CCGTGTTA,0.109
3,ACCTTTAG,-0.128
4,ACTAAGGC,0.0517
5,ATGTACTA,0.00765
6,CCTGTTAA,-0.0298
7,ATAGAACA,-0.00601
8,AAAGGTCT,-0.0315
9,AGAGTGTA,-0.208
10,ACGCGGAT,0.16
11,ATTTCCCG,0.181
12,TAGAGGAA,-0.0838
13,ATCACGCA,0.219
14,AAAGCGCT,0.183
15,GTAGCGGA,-0.0921
16,CGTCGGGA,-0.197
17,CTGGTCGC,-0.216
18,ATTGGCAA,0.136
19,CTGGTTAA,0.0494
20,CCTCTTAG,0.00859
21,ATGTGGAA,0.136
22,GGAATAAC,-0.134
23,CGGCCCAC,-0.154
24,GGCATCGA,0.00938
25,CCCTCCGC,-0.291

row,Sequence,PBM E-score
1,AATACACA,0.172
2,ACTTCAGA,0.0307
3,TAGCGCCA,-0.055
4,CAACTGAG,-0.00284
5,GACAACCA,0.0565
6,CGGTCAAC,-0.0265
7,AGACGCCG,0.102
8,GAAGCCGA,0.00104
9,TAGGGATA,-0.00602
10,ACGTGTGA,0.17
11,ATAACGCC,0.253
12,ACTGTTCG,0.0374
13,ATCGCGTA,0.124
14,AACTCTTC,-0.178
15,TAAACGTA,0.188
16,AACCGGTG,-0.163
17,ACCTATGG,-0.0155
18,CTATCCCA,-0.121
19,GAGAAACC,-0.208
20,AGACGAGG,-0.287
21,CCTCCTTA,-0.202
22,AGTAATTA,0.175
